Biological target: T1, HIV-1 envelope glycoprotein gp120 (YU2) (HIV-1 (YU2))
T1 construct: Surface glycoprotein gp120 of the HIV-1 envelope polyprotein, strain YU2; glycosylated (mannose-rich)
Assay: SPR; BIAcore 3000, CM4 chip; gp120YU2 amine-coupled (514 RU for the Lg-CRD chip, 838 RU for the Lg-ECD chip), BSA control flow cell; Langerin injected at 20 µl/min; running buffer 150 mM NaCl, 25 mM Tris pH 7.8, 4 mM CaCl2, 0.005% P20; regeneration with 50 mM EDTA; 1:1 Langmuir fit for Lg-CRD, EC50 from titration for Lg-ECD
Conditions: both partners purified

B1: Langerin extracellular domain (ECD) (domain or fragment)
chain: not shown
notes: Langerin, human; entire extracellular domain (neck domain and C-terminal CRD), trimeric; also called Langerin ECD; Lg ECD
Question: With B1 as the binder, how does the EC50 read?
Answer: ~0.282 µM

From publication PMC3511376, “Glycosaminoglycans Are Interactants of Langerin: Comparison with gp120 Highlights an Unexpected Calcium-Independent Binding Mode” (PLoS ONE, 2012)
